Over roughly 81,000 sequences, “one-hybrid fitness for binding NBS DNA” has its median near -0.1; the highest 2% begin near 0.36. The list shows a part of the results. Some results are limits rather than exact numbers.

To fix the notation:
B1: Caulobacter ParB omega fusion; a variant is named by its letters at X, in order, B8GW30 (parent)
chain: MESVVVGEPGMSEGRRGLGRGLSALLGEVDAAPAQAPGEQLGGSREAPIEILQRNPDQPRRTFREEDLEDLSNSIREKGVLQPILVRPSPDTAGEYQIVAGERAWRAAQRAGLKTVPIMVRELDDLAVLEIGIIENVQRADLNVLEEALSYKVLMEKFERTQENIAQTIGKSXSHVANXMRLLXLPDEVQSYLVSGELTAXHARAIAAAADPVALAKQIIEGGLSVRETEALARKAPNLSAGKSKGGRPPRVKDTDTQALESDLSSVLGLDVSIDHRGSTGTLTITYATLEQLDDLCNRLTRGI

In this experiment the parent is B1. Briefly: one-hybrid fitness for binding NBS DNA (the Noc-binding site; scaled: cognate 1, non-cognate 0); higher = stronger binding. Conditions: with NBS DNA site. Summed up: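 In E. coli USO, a HIS3 reporter with its site placed 19 bp from the promoter was used to select Caulobacter ParB variants randomised at four specificity codons. Growth lasted 48 hours at 37°C on histidine-free M9 containing 0.1 mM IPTG and 5 mM 3-AT. Fitness was taken as the log change in variant-to-wild-type read ratio from Illumina sequencing of pre- and post-selection plasmids, rescaled between the non-cognate and cognate sites.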
Regarding AALI, the “one-hybrid fitness for binding NBS DNA” value was ≤ 0.2.

For PMGI, the “one-hybrid fitness for binding NBS DNA” value was ≤ 0.2.

For the variant SGPP, the “one-hybrid fitness for binding NBS DNA” value was ≤ 0.2.

With FWIG, the “one-hybrid fitness for binding NBS DNA” value is ≤ 0.2.

Take HPTE: the “one-hybrid fitness for binding NBS DNA” value is ≤ 0.2.

Regarding KFQS, the “one-hybrid fitness for binding NBS DNA” value is ≤ 0.2.

FSVR: the “one-hybrid fitness for binding NBS DNA” value was ≤ 0.2.

Regarding RMNA, the “one-hybrid fitness for binding NBS DNA” value is ≤ 0.2.

Take YRCA: the “one-hybrid fitness for binding NBS DNA” value is ≤ 0.2.

Take WLGR: the “one-hybrid fitness for binding NBS DNA” value was ≤ 0.2.

KTRN: the “one-hybrid fitness for binding NBS DNA” value is ≤ 0.2.

As for PMRI, the “one-hybrid fitness for binding NBS DNA” value is ≤ 0.2.

As to KRTN, the “one-hybrid fitness for binding NBS DNA” value was ≤ 0.2.

Turning to SLYW, the “one-hybrid fitness for binding NBS DNA” value was ≤ 0.2.

Regarding PNSF, the “one-hybrid fitness for binding NBS DNA” value is ≤ 0.2.

Turning to PSCQ, the “one-hybrid fitness for binding NBS DNA” value was ≤ 0.2.

Consider SMVN, for which the “one-hybrid fitness for binding NBS DNA” value was ≤ 0.2.

For RANK, the “one-hybrid fitness for binding NBS DNA” value is ≤ 0.2.

With NLWS, the “one-hybrid fitness for binding NBS DNA” value was ≤ 0.2.

With PIRW, the “one-hybrid fitness for binding NBS DNA” value is ≤ 0.2.

With FPKG, the “one-hybrid fitness for binding NBS DNA” value is ≤ 0.2.

For the variant LEPH, the “one-hybrid fitness for binding NBS DNA” value is ≤ 0.2.

As for PSLC, the “one-hybrid fitness for binding NBS DNA” value was ≤ 0.2.

Regarding FNLM, the “one-hybrid fitness for binding NBS DNA” value is ≤ 0.2.

With DHRV, the “one-hybrid fitness for binding NBS DNA” value is ≤ 0.2.

As for YFHG, the “one-hybrid fitness for binding NBS DNA” value is ≤ 0.2.

With CLGS, the “one-hybrid fitness for binding NBS DNA” value is ≤ 0.2.

Take TFDV: the “one-hybrid fitness for binding NBS DNA” value was ≤ 0.2.

Take QPTA: the “one-hybrid fitness for binding NBS DNA” value is ≤ 0.2.

On to GCES, for which the “one-hybrid fitness for binding NBS DNA” value was ≤ 0.2.

As for DIQL, the “one-hybrid fitness for binding NBS DNA” value was ≤ 0.2.

For TYCS, the “one-hybrid fitness for binding NBS DNA” value was ≤ 0.2.

Consider RVGF, for which the “one-hybrid fitness for binding NBS DNA” value is ≤ 0.2.

Consider SWLQ, for which the “one-hybrid fitness for binding NBS DNA” value was ≤ 0.2.

For the variant KFKV, the “one-hybrid fitness for binding NBS DNA” value was ≤ 0.2.

On to MWKG, for which the “one-hybrid fitness for binding NBS DNA” value was ≤ 0.2.

With RIDF, the “one-hybrid fitness for binding NBS DNA” value was ≤ 0.2.

Take LNCY: the “one-hybrid fitness for binding NBS DNA” value is ≤ 0.2.

As for IFYY, the “one-hybrid fitness for binding NBS DNA” value was ≤ 0.2.

On to SWRN, for which the “one-hybrid fitness for binding NBS DNA” value is ≤ 0.2.

Consider STKF, for which the “one-hybrid fitness for binding NBS DNA” value was ≤ 0.2.

Take VKPD: the “one-hybrid fitness for binding NBS DNA” value was ≤ 0.2.

Turning to NYLR, the “one-hybrid fitness for binding NBS DNA” value is ≤ 0.2.

Turning to QNDT, the “one-hybrid fitness for binding NBS DNA” value is ≤ 0.2.

On to CPLF, for which the “one-hybrid fitness for binding NBS DNA” value was ≤ 0.2.

SDEG: the “one-hybrid fitness for binding NBS DNA” value is ≤ 0.2.

On to GHLG, for which the “one-hybrid fitness for binding NBS DNA” value was ≤ 0.2.

Consider SGCS, for which the “one-hybrid fitness for binding NBS DNA” value is ≤ 0.2.

PSEA: the “one-hybrid fitness for binding NBS DNA” value was ≤ 0.2.

For TRAN, the “one-hybrid fitness for binding NBS DNA” value is ≤ 0.2.

Turning to PSSM, the “one-hybrid fitness for binding NBS DNA” value is ≤ 0.2.

On to HETH, for which the “one-hybrid fitness for binding NBS DNA” value is ≤ 0.2.

As for QKTN, the “one-hybrid fitness for binding NBS DNA” value is ≤ 0.2.

Consider IVLC, for which the “one-hybrid fitness for binding NBS DNA” value was ≤ 0.2.

In the case of QGPF, the “one-hybrid fitness for binding NBS DNA” value was ≤ 0.2.

On to NQFL, for which the “one-hybrid fitness for binding NBS DNA” value is ≤ 0.2.

Take HVLY: the “one-hybrid fitness for binding NBS DNA” value is ≤ 0.2.

In the case of RPAS, the “one-hybrid fitness for binding NBS DNA” value was ≤ 0.2.

In the case of IPEV, the “one-hybrid fitness for binding NBS DNA” value is ≤ 0.2.

For DDRT, the “one-hybrid fitness for binding NBS DNA” value is ≤ 0.2.

For the variant HNMT, the “one-hybrid fitness for binding NBS DNA” value is ≤ 0.2.

As for LEYV, the “one-hybrid fitness for binding NBS DNA” value was ≤ 0.2.

Consider GLDC, for which the “one-hybrid fitness for binding NBS DNA” value is ≤ 0.2.

As to ISHS, the “one-hybrid fitness for binding NBS DNA” value is ≤ 0.2.

Take RCQW: the “one-hybrid fitness for binding NBS DNA” value was ≤ 0.2.

For the variant SYDM, the “one-hybrid fitness for binding NBS DNA” value was ≤ 0.2.

RAHM: the “one-hybrid fitness for binding NBS DNA” value is ≤ 0.2.

As to PSEQ, the “one-hybrid fitness for binding NBS DNA” value was ≤ 0.2.

For the variant QTWG, the “one-hybrid fitness for binding NBS DNA” value was ≤ 0.2.

Regarding LVVK, the “one-hybrid fitness for binding NBS DNA” value was ≤ 0.2.

As to LNEW, the “one-hybrid fitness for binding NBS DNA” value was ≤ 0.2.

Take VPKV: the “one-hybrid fitness for binding NBS DNA” value is ≤ 0.2.

In the case of PNPI, the “one-hybrid fitness for binding NBS DNA” value is ≤ 0.2.

On to DCST, for which the “one-hybrid fitness for binding NBS DNA” value was ≤ 0.2.

On to ENMW, for which the “one-hybrid fitness for binding NBS DNA” value was ≤ 0.2.

In the case of QVLV, the “one-hybrid fitness for binding NBS DNA” value is ≤ 0.2.

Turning to MLKF, the “one-hybrid fitness for binding NBS DNA” value was ≤ 0.2.

For AAEF, the “one-hybrid fitness for binding NBS DNA” value was ≤ 0.2.

As to PWQI, the “one-hybrid fitness for binding NBS DNA” value is ≤ 0.2.

As to WLGF, the “one-hybrid fitness for binding NBS DNA” value was ≤ 0.2.

Turning to MVIG, the “one-hybrid fitness for binding NBS DNA” value is ≤ 0.2.

As to YKRA, the “one-hybrid fitness for binding NBS DNA” value was ≤ 0.2.

With RIVN, the “one-hybrid fitness for binding NBS DNA” value was ≤ 0.2.

Take SSTC: the “one-hybrid fitness for binding NBS DNA” value was ≤ 0.2.

On to GRSI, for which the “one-hybrid fitness for binding NBS DNA” value is ≤ 0.2.

Take CGKR: the “one-hybrid fitness for binding NBS DNA” value turned out to be 0.327.

As for AHMS, the “one-hybrid fitness for binding NBS DNA” value is ≤ 0.2.

Regarding HVES, the “one-hybrid fitness for binding NBS DNA” value is ≤ 0.2.

For the variant APMG, the “one-hybrid fitness for binding NBS DNA” value is ≤ 0.2.

For ASMM, the “one-hybrid fitness for binding NBS DNA” value was ≤ 0.2.

PPDT: the “one-hybrid fitness for binding NBS DNA” value is ≤ 0.2.

Turning to KPVY, the “one-hybrid fitness for binding NBS DNA” value was ≤ 0.2.

On to KRRQ, for which the “one-hybrid fitness for binding NBS DNA” value turned out to be 0.245.

With IPPV, the “one-hybrid fitness for binding NBS DNA” value is ≤ 0.2.

Take EESL: the “one-hybrid fitness for binding NBS DNA” value was ≤ 0.2.

Consider QGRP, for which the “one-hybrid fitness for binding NBS DNA” value is ≤ 0.2.

For ETCV, the “one-hybrid fitness for binding NBS DNA” value is ≤ 0.2.

Source of the values: a collection of fitness landscapes (doi:10.1016/j.celrep.2020.107928).
